From the supplement of paper PMC8728848
This is one part of the list.

How the values were obtained:
Test in all cases: glycan array binding signal (z-score within array); higher = stronger binding
Conditions in all cases: glycan notation: IUPAC condensed, linker removed; mutation: K348A
Fuc(a1-2)Gal = molecular target: Fuc(a1-2)Gal
Method in brief: (§1)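 Arrays were curated from the Consortium for Functional Glycomics database, 3228 in total, and kept only where the protein sequence was available. Binding is expressed as a within-array Z-score. This score was averaged across arrays of the same protein sequence at different concentrations or buffers and across linkers, and negative values can be read as non-binding.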

Fuc(a1-2)Gal(b1-3)GalNAc = molecular target: Fuc(a1-2)Gal(b1-3)GalNAc
Method in brief: as §1

[1] = molecular target: Fuc(a1-2)Gal(b1-3)GalNAc(b1-3)Gal
Method in brief: as §1

[2] = molecular target: Fuc(a1-2)Gal(b1-3)GalNAc(b1-3)Gal(a1-4)Gal(b1-4)Glc
Method in brief: as §1

[3] = molecular target: Fuc(a1-2)Gal(b1-3)GalNAc(b1-4)[Neu5Ac(a2-3)]Gal(b1-4)Glc
Method in brief: as §1

Fuc(a1-2)Gal(b1-3)GlcNAc = molecular target: Fuc(a1-2)Gal(b1-3)GlcNAc
Method in brief: as §1

[4] = molecular target: Fuc(a1-2)Gal(b1-3)GlcNAc(b1-3)Gal(b1-4)Glc
Method in brief: as §1

[5] = molecular target: Fuc(a1-2)Gal(b1-3)[Fuc(a1-4)]GlcNAc
Method in brief: as §1

Fuc(a1-2)Gal(b1-4)Glc = molecular target: Fuc(a1-2)Gal(b1-4)Glc
Method in brief: as §1

Fuc(a1-2)Gal(b1-4)Glc6S = molecular target: Fuc(a1-2)Gal(b1-4)Glc6S
Method in brief: as §1

Fuc(a1-2)Gal(b1-4)GlcNAc = molecular target: Fuc(a1-2)Gal(b1-4)GlcNAc
Method in brief: as §1

[6] = molecular target: Fuc(a1-2)Gal(b1-4)GlcNAc(b1-3)Gal(b1-4)GlcNAc
Method in brief: as §1

[7] = molecular target: Fuc(a1-2)Gal(b1-4)GlcNAc(b1-3)Gal(b1-4)GlcNAc(b1-3)Gal(b1-4)GlcNAc
Method in brief: as §1

[8] = molecular target: Fuc(a1-2)Gal(b1-4)GlcNAc6S
Method in brief: as §1

[9] = molecular target: Fuc(a1-2)Gal(b1-4)[Fuc(a1-3)]GlcNAc
Method in brief: as §1

[10] = molecular target: Fuc(a1-2)Gal(b1-4)[Fuc(a1-3)]GlcNAc(b1-3)Gal(b1-4)[Fuc(a1-3)]GlcNAc
Method in brief: as §1

[11] = molecular target: Fuc(a1-2)Gal(b1-4)[Fuc(a1-3)]GlcNAc(b1-3)Gal(b1-4)[Fuc(a1-3)]GlcNAc(b1-3)Gal(b1-4)[Fuc(a1-3)]GlcNAc
Method in brief: as §1

Fuc(a1-2)Gal6S(b1-4)Glc = molecular target: Fuc(a1-2)Gal6S(b1-4)Glc
Method in brief: as §1

[12] = molecular target: Fuc(a1-2)Gal6S(b1-4)Glc6S
Method in brief: as §1

[13] = molecular target: Fuc(a1-2)Gal6S(b1-4)GlcNAc
Method in brief: as §1

Fuc(a1-2)[Gal(a1-3)]Gal = molecular target: Fuc(a1-2)[Gal(a1-3)]Gal
Method in brief: as §1

[14] = molecular target: Fuc(a1-2)[Gal(a1-3)]Gal(b1-3)GlcNAc
Method in brief: as §1

[15] = molecular target: Fuc(a1-2)[Gal(a1-3)]Gal(b1-4)Glc
Method in brief: as §1

[16] = molecular target: Fuc(a1-2)[Gal(a1-3)]Gal(b1-4)GlcNAc
Method in brief: as §1

[17] = molecular target: Fuc(a1-2)[Gal(a1-3)]Gal(b1-4)[Fuc(a1-3)]GlcNAc
Method in brief: as §1

[18] = molecular target: Fuc(a1-2)[Gal(a1-4)]Gal(b1-4)GlcNAc
Method in brief: as §1

[19] = molecular target: Fuc(a1-2)[GalNAc(a1-3)]Gal
Method in brief: as §1

[20] = molecular target: Fuc(a1-2)[GalNAc(a1-3)]Gal(b1-3)GlcNAc
Method in brief: as §1

[21] = molecular target: Fuc(a1-2)[GalNAc(a1-3)]Gal(b1-4)Glc
Method in brief: as §1

[22] = molecular target: Fuc(a1-2)[GalNAc(a1-3)]Gal(b1-4)GlcNAc
Method in brief: as §1

[23] = molecular target: Fuc(a1-2)[GalNAc(a1-3)]Gal(b1-4)[Fuc(a1-3)]GlcNAc
Method in brief: as §1

[24] = molecular target: Fuc(a1-2)[GalNAc(a1-4)]Gal(b1-4)GlcNAc
Method in brief: as §1

[25] = molecular target: Fuc(a1-2)[GalNAc(b1-3)]Gal
Method in brief: as §1

Fuc(a1-3)GlcNAc = molecular target: Fuc(a1-3)GlcNAc
Method in brief: as §1

[26] = molecular target: Fuc(a1-3)[Gal(b1-4)]Glc6S
Method in brief: as §1

[27] = molecular target: Fuc(a1-3)[Gal(b1-4)]GlcNAc
Method in brief: as §1

[28] = molecular target: Fuc(a1-3)[Gal(b1-4)]GlcNAc(b1-2)Man(a1-3)[Fuc(a1-3)[Gal(b1-4)]GlcNAc(b1-2)Man(a1-6)]Man(b1-4)GlcNAc(b1-4)GlcNAc
Method in brief: as §1

[29] = molecular target: Fuc(a1-3)[Gal(b1-4)]GlcNAc(b1-2)Man(a1-6)[Gal(b1-4)GlcNAc(b1-2)Man(a1-3)]Man(b1-4)GlcNAc(b1-4)GlcNAc
Method in brief: as §1

[30] = molecular target: Fuc(a1-3)[Gal(b1-4)]GlcNAc(b1-3)Gal(b1-3)[Fuc(a1-4)]GlcNAc
Method in brief: as §1

[31] = molecular target: Fuc(a1-3)[Gal(b1-4)]GlcNAc(b1-4)Gal(b1-4)[Fuc(a1-3)]GlcNAc
Method in brief: as §1

[32] = molecular target: Fuc(a1-3)[Gal(b1-4)]GlcNAc(b1-4)Gal(b1-4)[Fuc(a1-3)]GlcNAc(b1-4)Gal(b1-4)[Fuc(a1-3)]GlcNAc
Method in brief: as §1

[33] = molecular target: Fuc(a1-3)[Gal(b1-4)]GlcNAc6S
Method in brief: as §1

[34] = molecular target: Fuc(a1-3)[Gal3S(b1-4)]Glc6S
Method in brief: as §1

[35] = molecular target: Fuc(a1-3)[Gal3S(b1-4)]GlcNAc
Method in brief: as §1

[36] = molecular target: Fuc(a1-3)[Gal3S(b1-4)]GlcNAc6S
Method in brief: as §1

[37] = molecular target: Fuc(a1-3)[GalNAc(b1-4)]GlcNAc
Method in brief: as §1

Fuc(a1-4)GlcNAc = molecular target: Fuc(a1-4)GlcNAc
Method in brief: as §1

Fuc(b1-3)GlcNAc = molecular target: Fuc(b1-3)GlcNAc
Method in brief: as §1

Gal(a1-2)Gal = molecular target: Gal(a1-2)Gal
Method in brief: as §1

Gal(a1-3)Gal = molecular target: Gal(a1-3)Gal
Method in brief: as §1

Gal(a1-3)Gal(b1-3)GlcNAc = molecular target: Gal(a1-3)Gal(b1-3)GlcNAc
Method in brief: as §1

Gal(a1-3)Gal(b1-4)Glc = molecular target: Gal(a1-3)Gal(b1-4)Glc
Method in brief: as §1

Gal(a1-3)Gal(b1-4)GlcNAc = molecular target: Gal(a1-3)Gal(b1-4)GlcNAc
Method in brief: as §1

[38] = molecular target: Gal(a1-3)Gal(b1-4)[Fuc(a1-3)]GlcNAc
Method in brief: as §1

Gal(a1-3)GalNAc = molecular target: Gal(a1-3)GalNAc
Method in brief: as §1

[39] = molecular target: Gal(a1-3)[Gal(a1-4)]Gal(b1-4)GlcNAc
Method in brief: as §1

Gal(a1-4)Gal(b1-4)Glc = molecular target: Gal(a1-4)Gal(b1-4)Glc
Method in brief: as §1

Gal(a1-4)Gal(b1-4)GlcNAc = molecular target: Gal(a1-4)Gal(b1-4)GlcNAc
Method in brief: as §1

Gal(a1-4)GlcNAc = molecular target: Gal(a1-4)GlcNAc
Method in brief: as §1

Gal(a1-6)Glc = molecular target: Gal(a1-6)Glc
Method in brief: as §1

B1: Surfactant Protein D (Human); Neck + Carbohydrate Recognition Domain (NCRD) (Homo sapiens) (protein)
chain: MLLFLLSALVLLTQPLGYLEAEMKTYSHRTMPSACTLVMCSSVESGLPGRDRDGREGPRGEKGDPGLPGAAGQAGMPGQAGPVGPKGDNGSVGEPGPKGDTGPSGPPGPPGVPGPAGREGALGKQGNIGPQGKPGPKGEAGPKGEVGAPGMQGSAGARGLAGPKGERGVPGERGVPGNTGAAGSAGAMGPQGSPGARGPPGLKGDKGIPGDKGAKGESGLPDVASLRQQVEALQGQVQHLQAAFSQYKKVELFPNGQSVGEKIFKTAQFVKPFTEAQLLCTQAGGQLASPRSAAENAALQQLVVAKNEAAFLSMTDSKTEGKFTYPTGESLVYSNWAPGEPNDDGGSEDCVEIFTNGKWNDRACGEARLVVCEF
glycan array binding signal (z-score) (Fuc(a1-2)Gal): -0.169 | glycan array binding signal (z-score) (Fuc(a1-2)Gal(b1-3)GalNAc): -0.169 | glycan array binding signal (z-score) [1]: -0.172 | glycan array binding signal (z-score) [2]: -0.168 | glycan array binding signal (z-score) [3]: -0.148 | glycan array binding signal (z-score) (Fuc(a1-2)Gal(b1-3)GlcNAc): -0.171 | glycan array binding signal (z-score) [4]: -0.166 | glycan array binding signal (z-score) [5]: -0.177 | glycan array binding signal (z-score) (Fuc(a1-2)Gal(b1-4)Glc): -0.169 | glycan array binding signal (z-score) (Fuc(a1-2)Gal(b1-4)Glc6S): -0.162 | glycan array binding signal (z-score) (Fuc(a1-2)Gal(b1-4)GlcNAc): -0.173 | glycan array binding signal (z-score) [6]: -0.178 | glycan array binding signal (z-score) [7]: -0.104 | glycan array binding signal (z-score) [8]: -0.167 | glycan array binding signal (z-score) [9]: -0.176 | glycan array binding signal (z-score) [10]: -0.156 | glycan array binding signal (z-score) [11]: -0.151 | glycan array binding signal (z-score) (Fuc(a1-2)Gal6S(b1-4)Glc): -0.168 | glycan array binding signal (z-score) [12]: -0.177 | glycan array binding signal (z-score) [13]: -0.176 | glycan array binding signal (z-score) (Fuc(a1-2)[Gal(a1-3)]Gal): -0.171 | glycan array binding signal (z-score) [14]: -0.132 | glycan array binding signal (z-score) [15]: -0.18 | glycan array binding signal (z-score) [16]: -0.105 | glycan array binding signal (z-score) [17]: -0.148 | glycan array binding signal (z-score) [18]: -0.176 | glycan array binding signal (z-score) [19]: -0.164 | glycan array binding signal (z-score) [20]: -0.179 | glycan array binding signal (z-score) [21]: -0.164 | glycan array binding signal (z-score) [22]: -0.17 | glycan array binding signal (z-score) [23]: -0.136 | glycan array binding signal (z-score) [24]: -0.151 | glycan array binding signal (z-score) [25]: -0.167 | glycan array binding signal (z-score) (Fuc(a1-3)GlcNAc): -0.116 | glycan array binding signal (z-score) [26]: -0.017 | glycan array binding signal (z-score) [27]: -0.143 | glycan array binding signal (z-score) [28]: -0.176 | glycan array binding signal (z-score) [29]: -0.164 | glycan array binding signal (z-score) [30]: -0.173 | glycan array binding signal (z-score) [31]: -0.134 | glycan array binding signal (z-score) [32]: -0.176 | glycan array binding signal (z-score) [33]: -0.17 | glycan array binding signal (z-score) [34]: -0.112 | glycan array binding signal (z-score) [35]: -0.166 | glycan array binding signal (z-score) [36]: -0.148 | glycan array binding signal (z-score) [37]: -0.144 | glycan array binding signal (z-score) (Fuc(a1-4)GlcNAc): -0.169 | glycan array binding signal (z-score) (Fuc(b1-3)GlcNAc): -0.172 | glycan array binding signal (z-score) (Gal(a1-2)Gal): -0.177 | glycan array binding signal (z-score) (Gal(a1-3)Gal): -0.111 | glycan array binding signal (z-score) (Gal(a1-3)Gal(b1-3)GlcNAc): -0.173 | glycan array binding signal (z-score) (Gal(a1-3)Gal(b1-4)Glc): -0.173 | glycan array binding signal (z-score) (Gal(a1-3)Gal(b1-4)GlcNAc): -0.177 | glycan array binding signal (z-score) [38]: -0.16 | glycan array binding signal (z-score) (Gal(a1-3)GalNAc): -0.169 | glycan array binding signal (z-score) [39]: -0.174 | glycan array binding signal (z-score) (Gal(a1-4)Gal(b1-4)Glc): -0.162 | glycan array binding signal (z-score) (Gal(a1-4)Gal(b1-4)GlcNAc): -0.173 | glycan array binding signal (z-score) (Gal(a1-4)GlcNAc): -0.116 | glycan array binding signal (z-score) (Gal(a1-6)Glc): -0.165
